# Over roughly 4,500 sequences, “median log2 fold change of GCK-ALFA target abundance (FLAG IP / Myc IP barcode read proportion)” has its median near 0.078; the lowest 2% begin near -0.6. The list shows a part of the results.
# B1: GBRAP_80_6768 (protein)
# chain: MEKEIEKVLKEIEKLDKEVAEKLKEAVELAKKLGISLERILELVEAILELTKLDKEKALEIVKELVEALKEALKEGNKDKAVAELAGYISDALLAVEELE
# B2: GBRAP_52_6354 (protein)
# chain: MKERMKEIVDRLVALKKAGDEEGLRAEAREIVATLSDEELRLLFEELAEKAKESDPETAEALFEVAEVLEREMLEAGRDEFEASALLSDVGKAVYENLQK
# B3: GBRAP_177_5010 (protein)
# chain: SRLAEIEAAADDPEALLALVAATDLRELSREELLALLRALARAIAREGPRPELLEAAVRVAVALITDHGVSLAEVVAILIEHADPDTVEEVVERVAERLA
# B4: GBRAP_160_4506 (protein)
# chain: SSKYKEAAKVAEDAAKFIEEAKDTESREELAVVVAGEAGRVILEADELGVLSDEELDAFDEESRALVETILTGDEETAKAAVDEAIKMFKDLAKKLKKKA
# B5: GBRAP_166_4931 (protein)
# chain: SLEEIYEQAKKEVNELAEKAKTANDEELIELALEIRDILEEAKKKGLSPEQLKDILLEALSLLKDNPEKALFLLNMIEAAAGDDEELIDVIDRAKEEFLA
# B6: GBRAP_160_4556 (protein)
# chain: MEAAKEELEEIRELLEEAIELAKDLNPEEILILARGTLGEVIMLAFSSPHFTEEMEEALIEAADEIEERLEAAVDKNREEVVAVFREGAEALIKRLEELL
# B7: GBRAP_128_3372 (protein)
# chain: VDEEALARVRELGERMAEADVETAERLAEEIVRHLGTLDRETAEAAVEILKELLPKLSAEKLDVLADVIRRLRPTLDPYIASLLNELEVEALNEAEEKEE
# B8: GBRAP_48_5822 (protein)
# chain: MHMDEEELEELVEETVEEMKEIYEEAKKAGLSREEILKMIKAELGDLALELEEAGYTKAADYLLDPKNRDELATKLLEFFEEGKYEEAKEYLLEELRKAE
# B9: GBRAP_78_6682 (protein)
# chain: KVEEELDKAIEHLGKAAKILNKMGTEEALDLLGEVIDAAATVWEAHEGEADLKELEEALKKLKEALKRAKKIPTEEAKEAAKHLEEAIKHLEEAIKLLKK
# B10: GBRAP_14_3772 (protein)
# chain: MEEKEKILREEAAEIVELLAELAPEKAAAFRAAVDEVTEETIEEIRRTGNAFEAVEKGEERLVARIREITADLPPELQAEALAVVRVGYGEALLEIDELE
# B11: GBRAP_39_5705 (protein)
# chain: EREEEAEELFSYYEAEGAKYAVEEGLDEEEVRERTRELAERLSERYPELAPLVREALELAEKKGILAVLALLGLLLAAERGRPPEELREDLELLIEYLKS
# B12: GBRAP_9_7129 (protein)
# chain: REELIERLAEIVKDMIEDIAKVVPELTEEMKEKFLERVEALKKELLEDKNATPEEIAERFKELVEEIREEVKKIVNEEEKKLVDAIALTALVEIDEVVEE
# B13: GBRAP_160_4852 (protein)
# chain: EEKLKKALELIEEAEEEILELVDEVDVETLAAFFRAEVGRVIYEMETELNASDELLDKLDEIADETVEELLANPDLSVEERKELIREAFEKMKEAVKELS
# B14: GBRAP_83_6920 (protein)
# chain: KEEITVAANDDHIEEAAEAAIDLHKEEGYEVSLEFLITRESIPKLLKAFEKIAKAGVELELEILAYGVTEEEAEELKKELEEIAKKYGVKAKVEVEAIEP
# B15: GBRAP_137_3629 (protein)
# chain: ATVTIEVRHYEDVTEITVTLEDAALAEAVEELVLDVAHEHGALAVSVERDEDGTLTVEVWVPRERAQALLDALVRRLQEELGLRVRVRDLDTGEVREFTP
# B16: GBRAP_11_2892 (protein)
# chain: KEEKLKEAAELAKKLVELLKKLLEEGVDNEELLEEALKQAEKLLKLAKEYLDEATKKDVEIVLELVKKAKEDPENREQYAEEALAAARVLEGNLLLELEE
# B17: GBRAP_128_3255 (protein)
# chain: MNPEVVKYATEKVEKIKNSDAAEAAKIADDFMKWLKESSLEDAEQAVEVVEKRLGELSAEKLDILADAARKHLPEFSPEKANLVAGLEVEALNEAEEKEE
# B18: GBRAP_160_4404 (protein)
# chain: KEEFEKLKKEVKEIIEETKKLIEGETPEQRKVIIRVMIGDIILAAEENPAVTDEQEEEIDEILDEKLEKILAAVDEGLEAVKEELDELEEELEELIEEYE
# B19: GBRAP_52_5858 (protein)
# chain: MEEEMREIAEELLELKLAGKEEELKKRVKELVKTLSEEEILELLKELAELAKKANKEEAEAIAEVAELLADEAEKAGFDEDELSYYLAEVYAAAYKQLQK
# B20: GBRAP_52_6143 (protein)
# chain: SAARVEALARAIVDALVAGREEEARALLREAIRTLSLEELLALAAEAARLIAKQGPDAEELLARFLELWEEVGEEEGLDDETIDLLIATAAKTFVDEQAK
# B21: GBRAP_11_2889 (protein)
# chain: KKEALEKALELAKELVELLEKLLKEGVDNEELLKKAKEKAEELLKLAKEHLDPALQKDVEIIVELIEKAIEDPENREQYVKEALAAARVLAGNLELELEE
# B22: GBRAP_160_4571 (protein)
# chain: SAAIEALIKEIREEVEEAVEMIEGQDFAERRAIVRVTAGNILLLLDENPEVSEATLEEADAIFDALLATIDANPDLTAAEIQALLREAAERVIALLEKES
# B23: GBRAP_125_2991 (protein)
# chain: SEEEVLAALAEVLRALGFDDEDVEEAVRLARRHGIRGTLYAMMAALGWDEAADAVAQLTEEQARAVVLEVAAALRANPGLSPEEVAALILATARAALAAA
# B24: GBRAP_14_3809 (protein)
# chain: KEELKKEIEEILEELRRELVELLGLDEERVTALVDEAIEKIKEAIETLEDPEEEIEKIFDELRAKVAELAAALGADVEAGARALVDDAEYEVDEAIEKYK
# B25: GBRAP_153_3949 (protein)
# chain: MEEEEKLKKEALELIEQIKKSNGDPELIKKFAELFTKLNEENKKEIFKELESLPEELQKKIVKTLIKEAGISPEEIIEWIVGTSEEFEAAVLEAIVEAQK
# B26: GBRAP_80_6826 (protein)
# chain: MEEELEKNIEEIEKLDKEIAEIVKEIVELAKELGVPLEVLLRYTKAILELLKKDKEKALELAKKTLEEVKKAKEKGNKDEVIAILAEAESDALLEVEELE
# B27: GBRAP_160_4244 (protein)
# chain: SERLEKIRRDIREEAEVALEALAEVPPSQWPAILRAMAGDIVQIVIEDPSMSDETVERVDELAEEMVARLEAARDASPEEIRALLDEGVERIIELIEEEL
# B28: GBRAP_128_3440 (protein)
# chain: MQEELLKEALELLDKIVESDVEEAAELAKKLAELLGKLDEESRDKVVEYFEEKAKELTEEKLEAVSDALREQVPSLDPLTANAVNEMMVILGERILELEE
# B29: GBRAP_83_6896 (protein)
# chain: AEEITVAADGDHIEEAFEAAIDLSKEYGYKVSIEVIVTPEDVETLLKAFEKLAKEGINVELEVIAEGMTEEEIEELKKKLEEIAKKYGVDVKIEVIKKEP
# Target: GABARAP, O95166
# Sequence (O95166 whole entry, the tested form may be a part): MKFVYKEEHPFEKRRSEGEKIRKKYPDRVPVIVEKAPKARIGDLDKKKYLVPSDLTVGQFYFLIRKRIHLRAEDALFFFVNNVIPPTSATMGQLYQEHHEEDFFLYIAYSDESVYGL
# Experiment: median log2 fold change of GCK-ALFA target abundance (FLAG IP / Myc IP barcode read proportion) (log2 ratio); each designed protein is fused to an ALFA-tag nanobody in HEK293 cells to bring the named protein to FLAG-tagged glucokinase (GCK); Myc marks an untargeted standard; higher = target protein stabilised (more abundant)
# Conditions: target protein: 3xFLAG-MCP-GCK-ALFA reporter; HEK293 landing pad (RPLP)
# In short: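 HEK293 landing-pad cells received a recombined binder library fused to the ALFA nanobody and were induced with 2 μg mL^−1 doxycycline, then transfected with a plasmid encoding a FLAG-tagged target and a Myc-tagged standard. Lysates were collected after 48 h for anti-FLAG and anti-Myc immunoprecipitation, and the circular RNA barcodes were reverse transcribed, amplified and sequenced. Target abundance for each binder is the median log2 ratio of FLAG to Myc barcode read proportions. Barcodes had to reach a proportion of at least 10^−7 in both replicates, each binder needed at least 3 barcodes per replicate, a pseudocount of 10^−6 was applied, and the two replicates were pooled.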
row,Binder,median log2 fold change
1,B1,-0.0595
2,B2,0.137
3,B3,0.0662
4,B4,0.026
5,B5,0.203
6,B6,-0.36
7,B7,0.184
8,B8,0.0591
9,B9,-0.179
10,B10,0.004
11,B11,0.042
12,B12,0.168
13,B13,-0.441
14,B14,0.00635
15,B15,-0.0573
16,B16,-0.148
17,B17,0.0207
18,B18,-0.346
19,B19,-0.144
20,B20,-0.35
21,B21,0.0469
22,B22,0.096
23,B23,-0.179
24,B24,0.0997
25,B25,-0.0177
26,B26,0.133
27,B27,-0.0641
28,B28,0.147
29,B29,0.047

# — the supplement of paper PMC12632987
